The values below come from PubChem BioAssay AID1963825 (Molecular Pharmacology Branch, DTP, NCI, 2024).

Some entries of the source have several records that differ or are many. Only these are listed. An entry can have further records. The values listed for one entry are repeated measurements (runs, samples, wells, individuals or studies). Additions like (4×) count equal records among those shown. A date in brackets names the month of the test. Some results are limits rather than exact numbers.

For orientation: IC50 means the concentration that gives 50% inhibition.

The assay can be described thus: Anticancer human tumor 997537-175-T-J1-PDC patient-derived colon adenocarcinoma cell line growth inhibition [POLQ]. Conditions: 997537-175-T-J1-PDC complex spheroid viability, combination with POLQ inhibitors; for viability, T/C: stronger effect = lower value; for IC50: compound alone. The method, then:
Multicellular complex tumor spheroid response to Polymerase (POL) inhibitors (novobiocin, ART-558, RP6685) in combination with a variety of drugs and investigational agents in selected tumor cell lines
The POL inhibitors (novobiocin, ART-558, and RP6685) were evaluated both individually and in combination with standard of care and investigational anticancer small molecules within a complex spheroid model of solid tumors. . Complex spheroids include a stromal component modeled by human endothelial cells (HUVEC) and fibroblasts modeled by human mesenchymal stem cells (MSCs). The concentration ranges selected for each drug and investigational agent were based upon clinically achievable concentrations if the clinical Cmax of the agent was known.
Compounds. The drugs and investigational agents: novobiocin (NSC847541), ART-558 (NSC835418), RP-6685 (NSC848927), peposertib (NSC802822), ceralasertib (NSC780249), elimusertib (NSC800525), camonsertib (NSC841442), AZD-1390 (NSC803789), olaparib (NSC753686), talazoparib (NSC767125), rucaparib (NSC756644), sotorasib (NSC818433), MRTX-1133 (NSC836407), SN-38 (NSC673596), topotecan (NSC609699), epotoside (NSC141540), doxorubicin (NSC123127), gemcitabine (NSC613327), 5-fluorouracil (NSC19893), paclitaxel (NSC125973), vemurafenib (NSC761431), MSA-2 (NSC828583), SN-011 (NSC837082), adavosertib (NSC754352), prexasertib (NSC758257), carboplatin (NSC241240) and oxaliplatin (NSC266046), were obtained from the National Cancer Institute (NCI) Developmental Therapeutics Program Chemical Repository (21). The FDA-approved anticancer drug set is available from the Developmental Therapeutics Program at https://dtp.cancer.gov/organization/dscb/obtaining/. […] The stock solutions were prepared in dimethyl sulfoxide (DMSO, Sigma-Aldrich, St. Louis, MO, cat. D2650), except for the platinum compounds which were prepared in saline (Quality Biological, Gaithersburg, MD, cat. 114-055-101), at 800-fold the tested concentration and stored at -70 degrees C prior to their use. All drugs and investigational agents were tested over a range starting from a high concentration at or near the clinical Cmax and decreasing in half-log increments. If the clinical Cmax for an agent had not been determined, the highest concentration tested was 10 microM, except for SN-38, which was tested at a high concentration of 1 microM.
Cell Culture. All cells were maintained in an incubator at 37 degrees C and 5% CO2 with 95% humidity. The PDC lines were cultured according to standard operating procedures established by the NCI PDMR (https://pdmr.cancer.gov). Table 3 of the manuscript, lists the cell lines along with the number of the three cell types plated to form the mct-spheroids and media for tumor cell growth. After thawing, all PDC lines, except 997537-175-T-J1-PDC and 415267-285-R-J2-PDC, were cultured in Matrigel-coated flasks prepared with a working solution of 1X Ham's F-12 nutrient mix, without supplementation (Thermo Fisher Scientific, cat. 11765054), 100 U/mL penicillin-streptomycin (Thermo Fisher Scientific, cat. 15140122), and 2.5% Matrigel (Corning Inc., Corning, NY, cat. 354248) for the first three passages. The two PDC lines 997537-175-T-J1-PDC and 415267-285-R-J2-PDC were cultured on uncoated flasks. The 857933-349-R-J2-PDC line was cultured in 6C/Colon 1B media containing advanced DMEM/F-12 (Thermo Fisher Scientific, cat. 12634028), 10 mM HEPES (Thermo Fisher Scientific, cat. 15630080), 1X GlutaMAX supplement (Thermo Fisher Scientific, cat. 35050061), 0.1 mg/mL primocin (InvivoGen, San Diego, CA, cat. ant-pm-2), 10% defined fetal bovine serum, heat inactivated (HyClone Laboratories Inc., Logan, UT, cat. SH30070.03HI), 50% L-WRN conditioned media (ATCC, cat. CRL-3276), 1.25 mM N-Acetyl-L-cysteine (Sigma-Aldrich, cat. A9165), 10 mM nicotinamide (Sigma-Aldrich, cat. N0636), 1X B-27 supplement (Thermo Fisher Scientific, cat. 17504044), 1X N-2 supplement (Thermo Fisher Scientific, cat. […]
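Note: luminescence signal used as a surrogate for viable cells; spheroids exposed to drugs for seven days before readout.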

`Nc1ccc(C#CCN(C(=O)Cc2ncc(C(F)(F)F)cc2C(F)(F)F)c2ccc(F)cc2)nn1`: the viability, T/C (compound alone 1 µM) is 105 (2×), 102, 94.8, 106, 110, 103, 97.2, 97.7, 92.1, 101, 84.7, 107%.
As for `O=C(c1cc(Cc2n[nH]c(=O)c3ccccc23)ccc1F)N1CCN(C(=O)C2CC2)CC1`, the IC50 was < 31.6 nM, > 10 µM [2023-11] and > 10 µM [2023-12].
Turning to `CC1COCCN1c1cc(-c2ccnn2C)c2ccnc(-c3ccn[nH]3)c2n1` (configuration not stated), the IC50 is 273 nM, > 10 µM [2023-11] and > 10 µM [2023-12].
On the same count and under the same terms, to `CC(C)n1c(=O)n(C)c2cnc3cc(F)c(-c4ccc(OCCCN5CCCCC5)nc4)cc3c21` belongs < 31.6 nM, > 10 µM [2023-11] and > 10 µM [2023-12].
As to `COC1C(OC(N)=O)C(O)C(Oc2ccc3c(O)c(NC(=O)c4ccc(O)c(CC=C(C)C)c4)c(=O)oc3c2C)OC1(C)C` (configuration not stated), the viability, T/C (compound alone 0.0316 µM) is reported as 82.4, 106, 98.9, 97.5, 112, 93.1, 90.5, 104, 100, 105, 99.3, 99.1, 93.5%; the viability, T/C (compound alone 3.16 µM) was 92.3, 85.5, 103, 112, 110, 90.1, 106, 99, 99.9, 91.6, 108, 97, 98.6%; the viability, T/C (compound alone 10 µM) was 90.9, 101 (2×), 97.1, 105, 85.4, 97, 94.6, 111, 100, 99.5, 98.7, 98%.
